The text below walks through data of patent publication US20240166752A1 (HEFEI TG IMMUNOPHARMA, published 2024).

The target of the test is T1, MICA expressed on CHO-K1-MICA cells (human, UniProt Q29983 24-383).
T1 construct: Full-length entry as expressed from the lentiviral vector
T1 sequence: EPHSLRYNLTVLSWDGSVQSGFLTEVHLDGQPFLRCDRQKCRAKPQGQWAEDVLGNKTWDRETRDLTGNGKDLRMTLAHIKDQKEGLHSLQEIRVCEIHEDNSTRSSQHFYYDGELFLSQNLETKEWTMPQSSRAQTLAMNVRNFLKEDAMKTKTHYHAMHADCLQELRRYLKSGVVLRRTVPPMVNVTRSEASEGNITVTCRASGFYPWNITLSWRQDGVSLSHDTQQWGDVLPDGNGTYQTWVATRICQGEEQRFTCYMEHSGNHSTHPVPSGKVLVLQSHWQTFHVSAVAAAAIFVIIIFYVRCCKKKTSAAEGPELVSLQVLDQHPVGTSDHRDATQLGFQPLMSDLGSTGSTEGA
Kind of test: flow cytometry, NKG2D-Fc on CHO-K1-MICA cells in the presence of antibody 5A1. The procedure:
The MICA antibody can promote the signaling pathway of MICA and its receptor NKG2D by binding to the extracellular region of MICA. In this example, the effect of the MICA antibody on the binding of MICA to its receptor NKG2D was detected by flow cytometry.
The CHO-K1-MICA cells obtained in Example 4 were diluted to 2×10⁶ cells/mL with PBS and were added to a 1.5 mL EP tube in a volume of 100 μL/tube. Mouse serum at 10 μL/tube was added thereto and was blocked at 4° ° C. for 30 min. MICA antibodies No. 5A1 and the control antibody IgG1 (Biolegend, MG1-45) with a series of dilution gradients (10⁻⁴, 10⁻³, 10⁻², 10⁻¹, 10⁰, 10¹ μg/mL) were added and incubated at 4° C. for 30 min. NKG2D extracellular region Fc fusion protein (NKG2D-Fc, SEQ ID NO: 32, obtained by expression in this laboratory) was added at 2 μg/tube and incubated for 30 min at 4° C. The EP tube was added with 1 mL of PBS and centrifuged at 3500 rpm at 4° C. for 5 min. The supernatant was discarded and the precipitate was washed once more with PBS. After centrifugation, the supernatant was discarded. The cells were resuspended with 100 μL/tube of PBS, and 1 μL/tube of 647-labeled mouse anti-human antibody secondary antibody (Biolegend, HP6017) was added thereto, and incubated at 4° C., under the condition of avoiding light, for 30 min. […] The cells were resuspended with 200 μL/tube of PBS and detected by flow cytometry. […]

B1: NKG2D extracellular region Fc fusion protein (NKG2D-Fc) (Fc fusion)
chain: IWSAVFLNSLFNQEVQIPLTESYCGPCPKNWICYKNNCYQFFDESKNWYESQASCMSQNASLLKVYSKEDQDLLKLVKSYHWMGLVHIPTNGSWQWEDGSILSPNLLTIIEMQKGDCALYASSFKGYIENCSTPNTYICMQRTV[gap - human IgG1 Fc]
notes: expressed in the applicant's laboratory; also called receptor NKG2D
With B1, the binding result is recorded as “binds”.
